# Reference: PubChem BioAssay AID2451 (National Center for Advancing Translational Sciences (NCATS), 2010)
# Among all 290,000 compounds or so, about 2,100 (0.72%) were called active. Inconclusive means that the source gave no clear call. Such entries were picked first, then a sample of the others. Calls follow the shape of the dose curve; as a rule, active = well fitted inhibition curve with a large enough effect; inconclusive = small, poorly fitted or top-dose-only effect, or effect the other way; inactive = flat fitted curve, though single readings scatter. A potency beside an inconclusive call is a rough fit, not a confirmed value.
# Target: Fructose-bisphosphate aldolase (Giardia intestinalis (strain ATCC 50803 / WB clone C6)) (UniProt A8B2U2)
# Sequence of UniProt A8B2U2 (A8B2U2 whole entry, looked up): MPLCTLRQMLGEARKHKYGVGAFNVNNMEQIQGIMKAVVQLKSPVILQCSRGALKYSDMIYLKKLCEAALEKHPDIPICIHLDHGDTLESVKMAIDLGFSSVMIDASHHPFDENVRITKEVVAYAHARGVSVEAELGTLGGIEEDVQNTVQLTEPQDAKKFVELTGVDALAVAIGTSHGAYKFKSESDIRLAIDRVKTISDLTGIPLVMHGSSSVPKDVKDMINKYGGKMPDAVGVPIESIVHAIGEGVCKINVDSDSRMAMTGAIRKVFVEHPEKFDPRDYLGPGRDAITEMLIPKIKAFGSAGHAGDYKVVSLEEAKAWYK
# Test: qHTS Assay for Inhibitors of Fructose-1,6-bisphosphate Aldolase from Giardia Lamblia; also: nearly all actives have a fitted effect of over 55% in size
# Details: purified Giardia FBPA; activity, negative = inhibition: at 59.6 µM (top of the series) unless noted
# How it was run: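 Giardia FBPA (40 nM reagent) was preincubated 10 min at RT with compound (up to 57.5 uM final), then substrate plus GAPDH/TPI/NAD/arsenate coupling system with diaphorase/resazurin was added; resorufin fluorescence (525/598 nm) was read after 20 min.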
# % is scaled to controls: 0 for no effect and ±100 for the full control effect; potency is read from the fitted curve at half-maximal effect; tags tell the direction and shape of the fitted curve.
SMILES,Potency,"activity, negative = inhibition"
CC1(C)CC(N(CCc2ccccc2)Cc2ccccc2)CCO1 (stereo not given),"inconclusive: 35.4 µM [inhibitor, single point]",–
Cc1ccc(C2C(C#N)=C(N)Oc3c2sc2ccccc32)o1 (stereo not given),"inconclusive: 5 µM [inhibitor, partial curve]",–
C=CCN1CN(CCc2ccccc2)CNC1=S,–,inactive: 0.0592%
CC(/C=C/C(=O)c1ccc(C)cc1)=C\c1ccccc1,–,inactive: -7.08%
N#Cc1cc2ccc(N3CCOCC3)cc2cc1C#N,"inconclusive: 3.15 µM [inhibitor, full curve]",–
CCOc1ccc(OCC(O)CN2CCN(S(=O)(=O)c3cccc(C(F)(F)F)c3)CC2)cc1 (stereo not given),"inconclusive: 15.8 µM [inhibitor, partial curve]",–
Cc1ccc(-n2nc3c(N4CCC(C(=O)N5CCC(C(N)=O)CC5)CC4)nnc(C)c3c2C)cc1,–,inactive: -9.1%
CCN(CC)c1nc(-c2nn[nH]n2)nc(N(CC)CC)n1,"inconclusive: 2.81 µM [inhibitor, full curve, poor fit]",–
COc1ccc(OC)c2[nH]c(=O)c(CCNC(=O)c3ccc(Br)o3)cc12,"inconclusive: 19.9 µM [inhibitor, partial curve]",–
CCn1c2ccccc2c2cc(CN3CCN(C(=O)c4ccco4)CC3)ccc21,"inconclusive: 17.7 µM [inhibitor, single point]",–
S=c1c2c(nc3nc[nH]n13)CCC2,active: 2.51 µM,–
Oc1ccc(NCc2cccc(OCc3ccccc3)c2)cc1,active: 15.8 µM,–
CC(=O)OCC1=C(C(=O)O)N2C(=O)[C@@H](N)[C@@H]2SC1,"inconclusive: 15.8 µM [inhibitor, partial curve]",–
CCOCCCNC(=O)/C(C#N)=C/c1cc(OC)c(O)c([N+](=O)[O-])c1,"inconclusive: 22.3 µM [inhibitor, partial curve]",–
CC1(C)CC(Cc2nc(=S)[nH][nH]2)C(=O)O1 (stereo not given),active: 6.29 µM,–
Cc1cc(Nc2cccc([N+](=O)[O-])c2)n2c(nc3ccccc32)c1C#N,"inconclusive: 28.2 µM [inhibitor, partial curve]",–
CCC1=NNc2cccc3c(OC)ccc1c23,"inconclusive: 3.54 µM [inhibitor, partial curve]",–
O=c1c2ccccc2[nH]c2ccc(F)cc12,–,inactive: -0.171%
O=C(O)c1cccc(COc2ccccc2Cl)c1,"inconclusive: 17.7 µM [activator, partial curve]",–
O=C(Sc1cccc2cccnc12)c1ccc(F)cc1,"inconclusive: 17.7 µM [inhibitor, single point]",–
CN1CCN(C(=S)NC(=O)c2ccc(S(=O)(=O)N3CCOCC3)cc2)CC1,"inconclusive: 17.7 µM [inhibitor, partial curve]",–
COc1ccc(OC)c(NC(=O)CCN2CC(C)CC(C)C2)c1 (stereo not given),"inconclusive: 22.4 µM [inhibitor, single point]",–
O=C(CCc1ccccc1)Nc1nn[nH]n1,"inconclusive: 9.98 µM [inhibitor, partial curve]",–
O=C(O)[C@@H]1C[C@@H](C(=O)O)N1,"inconclusive: 39.7 µM [inhibitor, partial curve]",–
CC1(C)CC(N2CCN(CCO)CC2)=CC(=S)N1,"inconclusive: 15.8 µM [inhibitor, partial curve]",–

SMILES,Potency,"activity, negative = inhibition"
COC(=O)CCC(=O)OC1(C)C(=O)C2=CN(C(CO)CO)C(c3ccc(OC)cc3)=CC2=C(Br)C1=O (stereo not given),active: 0.63 µM,–
COC1(OC)N=C(N)C2(C#N)C(c3ccc(C)cc3)C12C#N (stereo not given),"inconclusive: 17.7 µM [inhibitor, partial curve]",–
Cc1cc(C=O)c(C)n1-c1sc2c(c1C(=O)O)CCCC2,–,inactive: 17.5%
CC(NC(=S)NNS(=O)(=O)c1cccc([N+](=O)[O-])c1)c1ccccc1 (stereo not given),active: 15.8 µM,–
CC(NC(=O)/C(=C\c1ccco1)NC(=O)c1ccco1)C(=O)O (stereo not given),"inconclusive: 25.1 µM [inhibitor, partial curve]",–
O=C(NC(=S)Nc1cccc(C(F)(F)F)c1)c1ccc2nonc2c1,active: 9.98 µM,–
CCOc1ccc(N2C(=O)C3ON(c4ccccc4)C(c4cccs4)C3C2=O)cc1 (stereo not given),–,inactive: 5.93%
CN1CCN(/N=C/c2nc(-c3ccccc3)n3ccccc23)CC1,"inconclusive: 22.3 µM [inhibitor, partial curve]",–
O=C(NC(=S)Nc1cccc([N+](=O)[O-])c1)c1ccccc1,"inconclusive: 15.8 µM [inhibitor, partial curve]",–
O=C(Nc1ccc(COc2ccccc2)cc1)Nc1cccc(C(=O)O)c1,–,inactive: -3.75%
Cc1ccc(C)c(N=Cc2cc3c(cc2[N+](=O)[O-])OCO3)c1,active: 3.15 µM,–
Cc1nc(NCc2ccco2)c2c(C)c(C)sc2n1,"inconclusive: 15.8 µM [inhibitor, single point]",–
Cc1ccc(NC(=O)c2cc(C)n(-c3ccccc3)c2C)cc1,"inconclusive: 15.8 µM [inhibitor, single point]",–
Cc1ccc(OCc2ccccc2Br)c([N+](=O)[O-])n1,–,inactive: 7.4%
CC(=O)c1cccc(NC(=O)N2CCCc3ccccc32)c1,"inconclusive: 31.5 µM [inhibitor, single point]",–
O=[N+]([O-])c1ccc2nc(-c3ccccn3)[nH]c2c1,active: 7.92 µM,–
O=C(NCc1cccc(Cl)c1)c1ccc(N2CC3CC(C2)c2cccc(=O)n2C3)c(NC(=O)c2cccnc2)c1 (stereo not given),–,inconclusive: 31.2% [activator]
C=CC1=C2C=C(C3CC3)N(Cc3ccccc3)C=C2C(=O)C(C)(OC(=O)c2ccco2)C1=O (stereo not given),"inconclusive: 0.792 µM [inhibitor, full curve]",–
N=c1n(Cc2ccccc2Cl)c2ccccc2n1CC(O)c1ccco1 (stereo not given),–,inactive: 5.21%
O=C(C1CCN(S(=O)(=O)c2ccc(F)cc2)CC1)N1CC=C(c2ccccc2)CC1,"inconclusive: 15.8 µM [inhibitor, partial curve]",–
CCOc1ccc(NC(=O)Nc2cc(OCC(F)(F)F)cc(OCC(F)(F)F)c2)cc1,–,inactive: 0.527%
Cc1cc(-c2ccccc2)c2c3c(cn2n1)c(=O)n(C)c(=O)n3C,"inconclusive: 2.23 µM [inhibitor, full curve, poor fit]",–
O=S1(=O)N=C(N/N=C/c2cccs2)c2ccccc21,active: 2 µM,–
CCCCOc1ccc(N(CC(=O)NC2CCCC2)C(=O)CCC(=O)Nc2ccccn2)cc1,–,inactive: 0.24%
CC(=O)C1=C(C)NC(=O)CC1c1ccccc1Cl (stereo not given),"inconclusive: 17.7 µM [inhibitor, single point]",–

SMILES,Potency,"activity, negative = inhibition"
C/C(CC(=O)Nc1cc(Cl)ccc1C)=N\NC(N)=O,–,inactive: 0.578%
O=C(Oc1ccc(-c2cn3c(n2)SCC3)cc1)c1ccccc1,–,inactive: 3.28%
CCN(CC)S(=O)(=O)c1ccc(N2CCOCC2)c(NC(=O)CNCCc2ccccc2)c1,"inconclusive: 19.9 µM [inhibitor, partial curve]",–
C[n+]1cccc(C2C(C#N)=C(N)Oc3c2ccc2ccccc32)c1 (stereo not given),"inconclusive: 44.6 µM [inhibitor, single point]",–
Cc1cc(-c2n[nH]c(=S)n2-c2ccccc2)nn1C,"inconclusive: 7.06 µM [inhibitor, partial curve]",–
COc1ccc(CN(C)CC(=O)Nc2sc3c(c2C#N)CCC3)cc1OC,–,inactive: -19.7%
COc1ccc(NC(=O)c2ccc(Cn3cc(Cl)cn3)cc2)cc1,–,inactive: -1.43%
O=C(NCCN1CCc2ccccc2C1)Nc1ccc(F)cc1,"inconclusive: 19.9 µM [inhibitor, single point]",–
COc1cc(NC(=O)C2CCCC2)c(OC)cc1Cl,–,inactive: 4.82%
OC1(C#CCN2CCCC2)CCCCC1,"inconclusive: 25.1 µM [inhibitor, single point]",–
Cc1ccc(S(=O)(=O)n2nc(OC(=O)c3cccs3)cc2N)cc1,–,inactive: -1.32%
CC1=C(C)C(=O)C(CCCCC#CCCCC#CCO)=C(C)C1=O,active: 17.7 µM,–
Cc1cccc(-c2nnc(-c3ccccc3)o2)c1,–,inactive: 0.729%
O=C(O)CCCCCn1c(SCC(=O)c2ccc(O)c(O)c2)nc2ccsc2c1=O,active: 3.97 µM,–
O=C(NC1=C(Nc2ccc(Cl)cc2)C(=O)c2ccccc2C1=O)c1ccccc1,"inconclusive: 1.99 µM [inhibitor, full curve]",–
Cc1ccc(NC(=S)N(CCN(C)C)Cc2cccs2)c(C)c1,active: 14.1 µM,–
O=[N+]([O-])c1ccccc1CN1CCN(Cc2ccc3ccccc3c2)CC1,"inconclusive: 31.6 µM [inhibitor, partial curve]",–
O=C(c1ccc(F)cc1)[C@@H]1[C@@H](C(=O)c2ccccc2)[C@@]2(C(=O)Nc3ccccc32)[C@H]2c3ccccc3C=CN12,"inconclusive: 14.1 µM [inhibitor, partial curve]",–
COCCNC(=O)/C(C#N)=C/c1ccc2c(c1)OCO2,–,inactive: -0.81%
CCOC(=O)C1=C(CSc2nc(CC)c(C)cc2C#N)OC(N)=C(C#N)C1c1ccc(OC)cc1 (stereo not given),"inconclusive: 11.2 µM [inhibitor, partial curve]",–
S=c1[nH]nc(CCCc2n[nH]c(=S)o2)o1,active: 0.5 µM,–
Cc1ccc(C(=O)c2ccccc2C(=O)OCC(=O)NC(C)(C)C)cc1,"inconclusive: 15.8 µM [inhibitor, single point]",–
CN(C)c1nc(N)c(C(=O)Nc2cccnc2)nc1Cl,"inconclusive: 19.9 µM [inhibitor, single point]",–
COc1ccc(NC(=O)N2CCCC3(CCN(C(=O)c4csnn4)CC3)C2)cc1,–,inactive: -4.8%
O=c1cc(CO)oc(C(Nc2ccccn2)c2ccc(F)cc2)c1O (stereo not given),"inconclusive: 28.2 µM [inhibitor, single point]",–
